According to patent EP4537907A1 (Enthera S.r.l., dated 2025):

Legend:
[1] = molecular target: T1, human CD248 expressed on the cell membrane of transiently transfected HEK 293 cells (human, UniProt Q9HCU0 18-757); assay: flow cytometry on transiently transfected HEK 293 cells, secondary anti-human IgG, antibody concentration series
T1 construct: whole, on cells; also called human CD248+ cells; CD248-positive cells
T1 sequence (looked up): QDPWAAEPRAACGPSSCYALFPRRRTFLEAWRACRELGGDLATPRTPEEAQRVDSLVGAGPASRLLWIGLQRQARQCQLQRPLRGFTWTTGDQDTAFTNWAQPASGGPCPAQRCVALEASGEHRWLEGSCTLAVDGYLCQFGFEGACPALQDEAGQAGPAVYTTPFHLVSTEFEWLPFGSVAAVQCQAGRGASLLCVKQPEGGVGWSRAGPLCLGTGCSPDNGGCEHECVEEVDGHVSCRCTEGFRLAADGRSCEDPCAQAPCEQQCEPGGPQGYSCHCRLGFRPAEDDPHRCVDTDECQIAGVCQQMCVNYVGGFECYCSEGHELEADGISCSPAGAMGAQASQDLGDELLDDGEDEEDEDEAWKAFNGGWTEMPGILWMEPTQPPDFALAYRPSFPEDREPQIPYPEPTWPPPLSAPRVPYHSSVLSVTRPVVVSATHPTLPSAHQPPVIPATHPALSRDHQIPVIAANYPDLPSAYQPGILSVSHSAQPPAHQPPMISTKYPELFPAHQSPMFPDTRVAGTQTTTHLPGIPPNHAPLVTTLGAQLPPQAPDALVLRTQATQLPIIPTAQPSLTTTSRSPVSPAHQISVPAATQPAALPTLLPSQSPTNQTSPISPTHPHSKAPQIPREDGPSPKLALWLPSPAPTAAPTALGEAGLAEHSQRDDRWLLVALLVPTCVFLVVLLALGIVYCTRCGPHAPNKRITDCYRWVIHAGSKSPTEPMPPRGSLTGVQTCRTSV

[2] = molecular target: T2, recombinant human CD248 (internally produced) (human, UniProt Q9HCU0 18-687, limits assumed, biotinylated in the inhibition ELISA); assay: competition ELISA: purified IgG4 (S228P/L235E) with biotinylated human CD248, added to immobilised human IGFBP5, Streptavidin-HRP
T2 construct: Soluble recombinant protein; also called human recombinant CD248; biotinylated CD248 (internally produced)
T2 sequence (looked up): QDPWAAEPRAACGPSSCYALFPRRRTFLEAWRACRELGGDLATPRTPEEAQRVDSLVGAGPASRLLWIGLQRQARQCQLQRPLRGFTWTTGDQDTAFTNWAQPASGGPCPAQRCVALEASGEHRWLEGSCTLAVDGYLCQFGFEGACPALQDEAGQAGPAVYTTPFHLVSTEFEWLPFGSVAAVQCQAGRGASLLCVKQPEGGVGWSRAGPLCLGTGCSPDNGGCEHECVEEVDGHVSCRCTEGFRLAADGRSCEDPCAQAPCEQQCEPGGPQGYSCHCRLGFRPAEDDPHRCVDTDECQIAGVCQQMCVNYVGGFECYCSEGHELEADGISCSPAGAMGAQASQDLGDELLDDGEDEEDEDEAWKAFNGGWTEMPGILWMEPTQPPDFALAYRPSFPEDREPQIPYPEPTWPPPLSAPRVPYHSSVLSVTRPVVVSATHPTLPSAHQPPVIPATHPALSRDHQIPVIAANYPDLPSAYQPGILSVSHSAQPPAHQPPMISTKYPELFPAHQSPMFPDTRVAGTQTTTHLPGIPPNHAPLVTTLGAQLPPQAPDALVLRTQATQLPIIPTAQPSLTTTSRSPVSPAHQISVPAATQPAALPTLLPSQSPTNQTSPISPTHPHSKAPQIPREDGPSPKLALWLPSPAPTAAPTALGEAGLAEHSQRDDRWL

[3] = molecular target: T3, recombinant mouse CD248 (internally produced) (mouse, UniProt Q91V98 18-695, limits assumed); assay: BLI (Octet platform, BLItz System), mAb captured via Fc on AHC biosensor, soluble antigen at different concentrations
T3 construct: also called murine recombinant CD248; Murine CD248
T3 sequence (looked up): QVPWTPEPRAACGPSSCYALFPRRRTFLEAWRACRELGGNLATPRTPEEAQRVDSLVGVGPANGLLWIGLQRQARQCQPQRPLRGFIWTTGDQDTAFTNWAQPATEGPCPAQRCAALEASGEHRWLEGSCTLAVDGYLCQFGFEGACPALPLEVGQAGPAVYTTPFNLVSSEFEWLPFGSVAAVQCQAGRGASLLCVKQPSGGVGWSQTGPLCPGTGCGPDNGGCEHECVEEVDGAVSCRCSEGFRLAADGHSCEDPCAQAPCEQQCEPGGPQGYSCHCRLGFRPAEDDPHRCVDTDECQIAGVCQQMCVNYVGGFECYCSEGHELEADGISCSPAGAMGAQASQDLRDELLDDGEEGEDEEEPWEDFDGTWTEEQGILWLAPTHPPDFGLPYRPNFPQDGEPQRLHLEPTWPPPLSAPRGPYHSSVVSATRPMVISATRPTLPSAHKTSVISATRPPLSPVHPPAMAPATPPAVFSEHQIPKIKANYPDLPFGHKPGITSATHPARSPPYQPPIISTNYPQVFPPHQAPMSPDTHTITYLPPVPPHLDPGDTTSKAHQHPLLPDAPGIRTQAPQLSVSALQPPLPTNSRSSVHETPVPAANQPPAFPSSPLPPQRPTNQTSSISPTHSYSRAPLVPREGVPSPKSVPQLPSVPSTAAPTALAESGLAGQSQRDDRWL

[4] = molecular target: T2, recombinant human CD248 (internally …); assay: as above
[5] = molecular target: T4, mouse CD248 expressed on the cell membrane of transiently transfected HEK 293 cells (mouse, UniProt Q91V98 18-765); assay: flow cytometry on transiently transfected HEK 293 cells, secondary anti-human IgG; the row's antigen cell prints 'Human CD248', taken as a misprint of Mouse CD248 from the table's order
T4 construct: whole, on cells; also called mouse CD248+ cells
T4 sequence (looked up): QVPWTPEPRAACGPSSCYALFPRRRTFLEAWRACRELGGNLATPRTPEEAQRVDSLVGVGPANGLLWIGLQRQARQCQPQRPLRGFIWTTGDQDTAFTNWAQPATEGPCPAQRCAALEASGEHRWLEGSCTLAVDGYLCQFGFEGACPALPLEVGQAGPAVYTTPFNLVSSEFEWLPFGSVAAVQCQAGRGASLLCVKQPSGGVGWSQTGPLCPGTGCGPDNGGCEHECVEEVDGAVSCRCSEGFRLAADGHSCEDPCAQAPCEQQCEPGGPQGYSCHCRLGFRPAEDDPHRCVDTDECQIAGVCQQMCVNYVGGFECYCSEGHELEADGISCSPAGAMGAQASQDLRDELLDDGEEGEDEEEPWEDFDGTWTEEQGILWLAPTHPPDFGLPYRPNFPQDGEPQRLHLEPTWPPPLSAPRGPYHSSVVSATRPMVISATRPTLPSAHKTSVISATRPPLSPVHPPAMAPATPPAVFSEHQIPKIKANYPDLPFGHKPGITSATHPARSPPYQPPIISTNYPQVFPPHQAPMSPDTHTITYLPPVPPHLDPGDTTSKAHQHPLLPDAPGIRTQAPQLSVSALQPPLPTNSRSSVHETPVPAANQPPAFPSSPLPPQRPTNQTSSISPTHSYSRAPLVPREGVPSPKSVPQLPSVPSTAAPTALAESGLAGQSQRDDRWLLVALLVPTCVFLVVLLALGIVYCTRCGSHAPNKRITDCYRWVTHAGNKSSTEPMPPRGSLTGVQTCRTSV

B1: YU1022-D08 (antibody, V domains shown)
VH: [no letters for about 100 residues]LTGTTWGQGTLVTVSS
VL: DIVMTQSPDSLAVSLGERATINCKSSRSVLYSSNNKNYLAWYQQKPGQPPKLLIYWASTRESGVPDRFSGSGSGTDFTLTISSLQAEDVAVYYCQQYYSTPYSFGQGTKVEIK
notes: Tested as full human IgG4 carrying the S228P/L235E mutations, made in HEK 293 cells; light 56, 57 or 58); also called YU1022-D08 mAb; YU1022-D08 IgG4 mAb
B1 was tested, and the EC50 [1] was 0.0261 µg/mL, the IC50 [2] was 41.6 µg/mL and the Kd [3] was 11.9 nM. It also gave a Kd [4] of 5.37 nM and an EC50 [5] of 0.0238 µg/mL.
